Test results published in the supplement of paper PMC3334620.
The full ranking holds about 33,000 sequences; the median of “E-score (-0.5 to 0.5)” is about -0.043, and the highest 2% start at about 0.37. The list shows a part of the results.

target: T1, Upc2 (UniProt Q12151); assay: PBM E-score (8-mer binding enrichment) (E-score (-0.5 to 0.5)); higher = stronger / more preferred TF binding; most listed sequences are background and not binding sites; conditions: protein concentration: 200 nM; construct: GST-full length
T1 sequence: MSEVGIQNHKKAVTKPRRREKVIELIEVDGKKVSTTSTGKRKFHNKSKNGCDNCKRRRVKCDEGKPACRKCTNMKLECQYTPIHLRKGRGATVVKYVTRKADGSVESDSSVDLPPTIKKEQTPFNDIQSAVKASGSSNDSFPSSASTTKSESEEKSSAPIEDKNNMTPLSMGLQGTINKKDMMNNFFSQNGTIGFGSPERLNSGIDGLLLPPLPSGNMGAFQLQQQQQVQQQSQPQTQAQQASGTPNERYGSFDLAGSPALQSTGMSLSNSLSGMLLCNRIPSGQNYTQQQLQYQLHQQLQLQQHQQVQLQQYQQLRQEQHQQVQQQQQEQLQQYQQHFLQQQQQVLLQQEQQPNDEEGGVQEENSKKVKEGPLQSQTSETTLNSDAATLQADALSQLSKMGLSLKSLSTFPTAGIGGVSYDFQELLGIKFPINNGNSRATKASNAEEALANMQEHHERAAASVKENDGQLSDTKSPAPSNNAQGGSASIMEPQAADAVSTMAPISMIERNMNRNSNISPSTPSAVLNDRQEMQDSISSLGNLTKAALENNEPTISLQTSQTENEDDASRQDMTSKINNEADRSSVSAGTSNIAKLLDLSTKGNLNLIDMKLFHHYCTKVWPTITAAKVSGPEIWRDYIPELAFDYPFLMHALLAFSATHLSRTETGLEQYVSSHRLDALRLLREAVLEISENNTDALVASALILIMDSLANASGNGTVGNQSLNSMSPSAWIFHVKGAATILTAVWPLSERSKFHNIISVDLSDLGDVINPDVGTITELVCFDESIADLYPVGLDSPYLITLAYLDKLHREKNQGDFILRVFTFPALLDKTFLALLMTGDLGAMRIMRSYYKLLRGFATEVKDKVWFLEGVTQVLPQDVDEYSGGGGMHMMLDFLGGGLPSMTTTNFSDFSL
Summary of the method: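 Using PURExpress in vitro transcription/translation, GST-tagged yeast transcription factors were made in full-length or DNA-binding-domain form. These were applied at about 100-200 nM to double-stranded universal all-10-mer Agilent arrays, and bound protein was detected with fluorescent anti-GST. Scans were normalised with masliner before the Universal PBM Analysis Suite assigned E-scores to ungapped eight-base words pooled with their reverse complements.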

| Sequence | PBM E-score |
| --- | --- |
| ACAAATGT | 0.0916 |
| CAGCAAGG | -0.23 |
| GAGGAAGA | -0.17 |
| GTTCCATA | -0.028 |
| CAGAATTA | -0.0215 |
| CAGTGGCA | -0.319 |
| AGGGATGA | -0.297 |
| ATGAGTTA | -0.0964 |
| ATACTAGA | 0.0865 |
| TTCCAAAA | 0.0144 |
| CGCGGGTA | -0.113 |
| AACGACTG | 0.389 |
| AGCTGCAT | -0.108 |
| CACCTACG | 0.122 |
| AAATTTCC | -0.00442 |
| AGTAGGAT | 0.0191 |
| TTCTGCAA | 0.111 |
| ATATGCTC | 0.0393 |
| ATACGCAT | 0.362 |
| CACGGCGG | -0.086 |
| ACCTATCA | -0.11 |
| ACCTAGTA | -0.235 |

| Sequence | PBM E-score |
| --- | --- |
| AAGATAAG | -0.119 |
| AATCATCT | -0.216 |
| CCTGGTCA | -0.262 |
| AGATCGTG | 0.0463 |
| AAGGCCCA | -0.237 |
| CACGCATG | -0.23 |
| GGTCCCAA | -0.297 |
| CGACTGGA | 0.11 |
| CCCCCAGC | -0.167 |
| CATACCGA | 0.0922 |
| AGACCTGC | -0.249 |
| AACCGAAA | 0.257 |
| AAGACTTA | -0.0413 |
| AGTCTGCC | -0.217 |
| GGGCTGTA | -0.0846 |
| TACCGGTA | 0.115 |
| AGACGATA | 0.138 |
| AATGCGGA | 0.0378 |
| CTGAGTCA | -0.0602 |
| AACCAAGT | 0.112 |
| ATGTGACC | -0.122 |
| ATGAGAGA | -0.0654 |

| Sequence | PBM E-score |
| --- | --- |
| AAGCAGGA | -0.047 |
| CCATATGG | 0.0747 |
| GGCCTTAA | -0.0394 |
| TCTGCCAA | 0.0469 |
| CCCCTTGA | -0.112 |
| TAGGTTCA | 0.0174 |
| AGCTAGAT | -0.0602 |
| ATAGGAGA | -0.0816 |
| GGCCGTAA | 0.255 |
| ACTAATCG | 0.181 |
| CGCGCTAG | -0.0533 |
| GAGCACGA | 0.1 |
| GATGATCA | -0.0107 |
| GCCATACA | 0.093 |
| ATCCACAC | -0.195 |
| TACTTCCA | -0.00592 |
| AAGTGTCG | 0.171 |
| CGTCGGTC | 0.185 |
| GTGGTTAA | 0.0266 |
| GCGGGGAC | -0.163 |
| AGGTATAA | 0.198 |
| CGTCGTGC | 0.0916 |

| Sequence | PBM E-score |
| --- | --- |
| AATGTAAA | 0.0929 |
| ACTAGGGG | -0.125 |
| TGCCTACA | -0.0509 |
| AGAATGCA | -0.00342 |
| CGGCATGC | -0.0612 |
| GTTAGCTA | -0.0162 |
| CCGGAATA | -0.0728 |
| GTTAAGCA | -0.0899 |
| GCAGACAC | -0.0421 |
| ATCAAATG | -0.0163 |
| ACGGCCAG | -0.00694 |
| AAAGTCAA | -0.137 |
| AGTTAAAC | 0.241 |
| AACCATGC | -0.101 |
| ACTTAGGC | -0.349 |
| ACCCCGTC | -0.0492 |
| CTGCCAAC | -0.0381 |
| GGCCCAAC | -0.123 |
| GCTCTGAC | -0.242 |
| ACCACATG | -0.162 |
